From patent publication US20070232572A1, “Chemical derivatives as antitelomerase agents which bind specifically to the G-quadruplex DNA structures and their application as a specific anticancer agent” (priority 2003, published 2007) come the findings set out here.

Assay [1] deals with G-quadruplex oligonucleotide GGGTTAGGGTTAGGGTTAGGG (3.5 repeats of the human telomeric unit), FAM+DABCYL. Nature of the assay: Test of affinity No. 3: stabilization of the G-quadruplexes, fluorescence Tm. As to conditions: test product 1 μM, oligonucleotide 0.2 μM, 0.1 M LiCl, 10 mM cacodylate pH 7.6; reference Tm 44° C. Format: binding. From the text:
Test of affinity No. 3: Measurement of the stabilization of the G-guadruplexes Tm, expressed in ° C., by a method using the formation of a complex with fluorescein of which the experimental protocol is described below.
All the oligonucleotides, modified or otherwise, were synthesized by Eurogentec S A, Seraing, Belgium. The oligonucleotide FAM+DABCYL has the catalog reference OL-0371-0802. It has the sequence: […] corresponding to 3.5 repeats of the human telomeric unit (strand rich in G). The fluorescein is attached to the 5′ end, the DABCYL to the 3′ end, by the chemical arms described by Eurogentec. An oligonucleotide FAM+TAMRA may also be used. The concentration of the samples is checked by spectrophotometry, by recording the absorbance spectrum between 220 and 700 nm and using the molar extinction coefficient provided by the supplier. […]
All the measurements of fluorescence were carried out on a Spex Fluorolog DM1B or Fluoromax 3 apparatus, using an excitation line width of 1.8 nm and an emission line width of 4.5 or 5 nm. […] The oligonucleotide alone was analyzed at 20, 30, 40, 50, 60, 70 and 80° C. The emission spectra are recorded using an excitation wavelength of 470 nm. The excitation spectra are recorded using either 515 or 588 nm as emission wavelength. […] This juxtaposition causes an already-described phenomenon of extinction of fluorescence which is used for “Molecular Beacons”. […]

Assay [2] concerns human telomerase (extract of A549 cells), oligonucleotide TSG4. Nature of the assay: Antitelomerase activity by the TRAP-G4 assay. As to conditions: formation of the TSG4-CXext band; read-out: Inhibition of telomerase IC50 (IC50 TRAP-G4). It counts as biochemical. On the procedure:
The extract is stored at -80° C.

Structures are written as SMILES.

As for `C[n+]1cc(NC(=O)c2cccc(C(=O)Nc3cc4ccccc4[n+](C)c3)n2)cc2ccccc21.[I-].[I-]` [Example 11, bis[(1-methylquinolinio-3-yl)amido]-2,6-pyridinedicarboxylic acid diiodide], the “Affinity G4 Test 3 Delta Tm” value in assay [1] worked out at 21.8 °C. For the same molecule, the half-maximal inhibitory concentration (IC50) in assay [2] was found to be 600 nM.

One may read the IC50 as the concentration needed to halve the response being measured.
